57 sequences from the supplement of paper PMC11417369 can be followed below.

± gives the standard deviation of the averaged measurements. The list shows a part of the results.

This assay relates to PfAP2-I AP2 domain 3 (GST-tagged). Nature of the assay: gcPBM binding intensity (ln(normalized median fluorescence intensity)); higher = stronger DNA binding. The gist of the method: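 GST-fused DNA-binding domains of P. falciparum, expressed in E. coli, were applied at about 25 μg on average for 1 h to an Agilent 4 × 180k array of primer-extended double-stranded 36-bp intergenic genomic probes and negative controls. Binding intensity is the highest Masliner-normalised natural-log median intensity across replicate spots of either probe orientation, measured with Alexa488 anti-GST antibody and a 488 nm scan.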
Regarding “TCACATACATTACTTACACACCATATTAAGATATAC [CACACA_site4415]”, the “gcPBM binding intensity (ln)” value was 8.31 ± 0.21. The figure for “TTTTGTATATATTATTGTACTTTTAATATAGATCGT [XGTACX_site5830]” is 7.85 ± 0.34. The value for “AAATAAATATATAATACACACAAAAATATAAAATGT [CACACA_site3711]” was 8.1 ± 0.54; that for “TAACATAAATCCATACGTACCTATATATATATAATA [XGTACX_site2626]” was 7.72 ± 0.49. For the sequence ATTTATATTAAAAGTGTGCACTTTTTTTTTTTTTTT, the “gcPBM binding intensity (ln)” value came to 9.77 ± 0.085. “TCATTCCATACTTTAACACACAAATATATTTAATCC [CACACA_site145]”: the “gcPBM binding intensity (ln)” value is 7.96 ± 0.68.

In the case of “ATATATATATATATATGTACATATTCACTTATATTT [XGTACX_site5324]”, the “gcPBM binding intensity (ln)” value came to 9.56 ± 0.65. The value for “TTTTTTTTTTTGTTTTGTACATAAATTGCAACCAAT [XGTACX_site8949]” was 8.45 ± 0.74.

For “TGTAGACTACATAGTAGTACATAATATATACATATA [XGTACX_site367]”, the “gcPBM binding intensity (ln)” value was determined as 7.46 ± 0.29. “TTTTCTTTTAAACATATATATATATATATATATATA [XGTACX_negctrl_site559]”: the “gcPBM binding intensity (ln)” value worked out at 9.27 ± 0.54. For the sequence “TATATATATATAATTACACACAATGTTCTATATATA [CACACA_site3235]”, the “gcPBM binding intensity (ln)” value was determined as 9.22 ± 0.17. The value for “TATTTATTTAATTACACACGAACATATAACCATTTC [CACACA_site211]” was 8.04 ± 0.38.

Take “ATTTCTTTGCTTTTCAAACACACAAAAGTTATTATA [CACACA_site520]”: the “gcPBM binding intensity (ln)” value came out at 8.09 ± 0.57. The figure for “GTTGAAAAAAAAAATGCACACGCATACATATAATAT [CACACA_site8117]” is 8.71 ± 0.29. On to “GAATATTACATGTATTGTACAGGTAATGTTAAAAAT [XGTACX_site8274]”, for which the “gcPBM binding intensity (ln)” value came out at 7.96 ± 0.51. “AAAAAAAAAAAAAAAACACACATATATATTATTGTA [CACACA_site3979]”: the “gcPBM binding intensity (ln)” value came to 8.65 ± 0.45. Turning to “TTTTTTGTATTTTTCACACACTCTCTATCTCTCTCA [CACACA_site2095]”, the “gcPBM binding intensity (ln)” value came out at 7.89 ± 0.65. The value for “AACTTTTTTATATGCACACATAAACAAGGATATATA [CACACA_site2874]” was 10.1 ± 0.49; that for “AAAAAAAAAAAAAACACACACACACCCATACACATA [CACACA_site2860]” was 8.43 ± 0.6.

Regarding “TATATATACATAAAAACATGCAATATATACACATTA [TGCATGCA_site444]”, the “gcPBM binding intensity (ln)” value was 7.71 ± 0.33.

Turning to “TACTTCGATAATAATCGTACATATATATTGTATTTA [XGTACX_site5700]”, the “gcPBM binding intensity (ln)” value is 7.92 ± 0.46.

In the case of “CAAAAAATACGATGTTGTACTATGTATTCCTGATGT [XGTACX_site246]”, the “gcPBM binding intensity (ln)” value was determined as 7.45 ± 0.55.

Consider “TTGTTTTGCTAAAAATGTACTCTATATAAAAGCTTT [XGTACX_site4027]”, for which the “gcPBM binding intensity (ln)” value turned out to be 7.63 ± 0.35. The figure for “TATATATATTATATATGTACACATATGTGAGAATGA [XGTACX_site2992]” is 8.3 ± 0.23; for “TATCAAAATAAATGCACACAAATTGCACATATCTAT [CACACA_site1097]” it is 10.3 ± 0.11; for “ATTTATATGTAGATGTGTACTTAATTGTAATGTGTT [XGTACX_site6422]” it is 7.9 ± 0.42. Turning to “CAAAAACATACCTACACACACAATATGTATAAATAA [CACACA_site7617]”, the “gcPBM binding intensity (ln)” value was 7.68 ± 0.44. The figure for “ATATTTATGACCGTACGTACCTAACAATACAATCAA [XGTACX_site4511]” is 8.14 ± 0.37. The value for “TGAATTTCAAAACAGTGTACATTAATATATATATAA [XGTACX_site7951]” was 7.96 ± 0.12; that for “ATAATATATATATGTAGTACGTATATAATTTTAATA [XGTACX_site5228]” was 7.83 ± 0.26; that for “AATTAAAATTTTTTTTTTTTTTTTTTTTTTCTATTA [CACACA_negctrl_site1585]” was 7.22 ± 0.46. Consider “AAAAATAAAAAAAACACACATACCTTATTTTTGTTC [CACACA_site2634]”, for which the “gcPBM binding intensity (ln)” value turned out to be 7.78 ± 0.9. Regarding “AAATTGATATTATATATATATATATATATATATATA [GTGCAC_negctrl_site482]”, the “gcPBM binding intensity (ln)” value stood at 9.14 ± 0.6. The figure for “TATATATCCTTCTATGCATGCATATGGATAGATTTC [TGCATGCA_site58]” is 7.61 ± 0.51; for “TATATATAGAAACACACACACAAAAAAAAAAAAAAA [CACACA_site1506]” it is 8.03 ± 0.5; for “ATTTAAAAAACTTTTAGCAAAAAAAAAAAATAATAA [TGCATGCA_negctrl_site191]” it is 7.61 ± 0.49. Turning to “AATATATATAATAATTGTACAATACGTATGTTATAT [XGTACX_site8745]”, the “gcPBM binding intensity (ln)” value amounted to 8.04 ± 0.46.

With “TGTATACATAATATTTGTACATATTGTTATATATAT [XGTACX_site740]”, the “gcPBM binding intensity (ln)” value was 8.23 ± 0.76. The value for TCCTATATCACAAATGTGCACAGAAAAAAAAAATAT was 10.2 ± 0.22. Turning to “ATATATATATACATACGTACACACAAATATTAAAAT [XGTACX_site4007]”, the “gcPBM binding intensity (ln)” value is 9.19 ± 0.11. The value for “TTATAAAAAAAAAAAAAAAAGAAAATGAATTCACGA [CACACA_negctrl_site1248]” was 8.19 ± 0.3. The value for “TGTTATATATTATATACATGCACAAAAGCAACACAA [TGCATGCA_site1009]” was 8.71 ± 0.4.

As for “TTCGACGAGAGCAAGTGTACTCTTGAATAATTTATA [XGTACX_site7613]”, the “gcPBM binding intensity (ln)” value came out at 7.61 ± 0.33. Consider “ATTTTATTTTTTGAGTGTACTAGTTCAACAACTCCG [XGTACX_site8600]”, for which the “gcPBM binding intensity (ln)” value is 8 ± 0.45. The value for “ATTATATATACATATACACACATACGTACATACATA [CACACA_site9194]” was 8.13 ± 0.49; that for “ATTTCATACAGACACACACACAAACAAACATATATA [CACACA_site979]” was 8.09 ± 0.23; that for “GTGAAGGTTTATATGTGTACATATATGTATTATATA [XGTACX_site326]” was 7.78 ± 0.32. As to “GACATTTCTTGGGATACATGCATGTCCCAGAACAAA [TGCATGCA_site271]”, the “gcPBM binding intensity (ln)” value turned out to be 7.83 ± 0.7. As for “TTTAATAAATTGTGTACACAAAACATATAAATTTCG [CACACA_site5644]”, the “gcPBM binding intensity (ln)” value was found to be 8.21 ± 0.071. In the case of “TTTTTTTTTTTTAATGCACACAGTGAACTTTTACTT [CACACA_site3567]”, the “gcPBM binding intensity (ln)” value stood at 11.3 ± 0.36. The value for “ATTATCAAGACATTGCGTACTTAAAAAAAAAAAAAT [XGTACX_site6347]” was 7.81 ± 0.42; that for “CATATATAATAATATTGTACATATATAATAATAATA [XGTACX_site3338]” was 7.68 ± 0.33. The value for “TTATTATTCATATATTCACACATTAAAATTTTTCAA [CACACA_site4243]” was 7.74 ± 0.35; that for “CATAAAAATGGATACACACACATAATATATATATAT [CACACA_site3619]” was 9.08 ± 0.11. As for “TAATTTTTTTTTTATTGTACTTAATATTTTTAATTT [XGTACX_site5929]”, the “gcPBM binding intensity (ln)” value was determined as 7.62 ± 0.45.

Regarding “AAAAAAATTAATGTGTGTACTTAGATATAATGTTTA [XGTACX_site8862]”, the “gcPBM binding intensity (ln)” value worked out at 7.66 ± 0.35. As for “TTACAAATATTATAAAGTACAAACCAGTAGATTTTG [XGTACX_site2272]”, the “gcPBM binding intensity (ln)” value turned out to be 7.49 ± 0.54.
